The RNAGym collection of RNA variant scans (doi:10.1073/pnas.2313332121)
This sample is rich in variants without activity.

B1: TPR 5TU (parent)
chain: GGAUCUUCUCGAUCUAACAAAAAAGACAAAUCUGCCACAAAGCUUGAGAGCAUCUUCGGAUGCAGAGGCGGCAGCCUUCGGUGGCGCGAUAGCGCCAACGUUCUCAACUAUGACACGCAAAACGCGUGCUCCGUUGAAUGGAGUUUAUCAUG

Variants of: B1
Assay: polymerase ribozyme fitness, log enrichment relative to wild type (log ratio); higher = more active; in vitro selection for triplet polymerase activity
Summary of the method: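 One round of in vitro selection, in triplicate, was applied to PCR-built, transcribed mutant libraries of each subunit of a heterodimeric triplet polymerase ribozyme. The steps were annealing with a biotinylated primer, partner subunit and triplets, incubation frozen at −7 °C, gel excision of extended constructs, streptavidin-bead capture and RT-PCR. Fitness is the logarithm, base 2, of genotype enrichment over wild-type enrichment from inverse-variance-weighted replicate averages of Illumina-sequenced inputs and outputs, keeping genotypes with ≥10 input reads and ≥1 read per output.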

First: A20G A52G G58U C87U
Second: A20G A60G G81A G92C G126A U139C U144G
The “polymerase ribozyme fitness (log ratio)” value of the first is higher: -0.805 for the first, ≤ -4.2 for the second.

Going from A20G A91G U146A to A20G C27A A47G G92A, the “polymerase ribozyme fitness (log ratio)” value falls from -3.96 to ≤ -4.2.

First: A20G C27A C38A C95A C108U A110G G143C
Second: A20G C27G A29U A97G A120G U146G
The “polymerase ribozyme fitness (log ratio)” value of the first is lower: ≤ -4.2 for the first, -4.06 for the second.

A20G C32A A39U U134C A137C and A20G C32A C51G C85A C118U U144A cannot be ordered by “polymerase ribozyme fitness (log ratio)” value: ≤ -4.2 for the first, ≤ -4.2 for the second.

A20G C32G A52C U55A and A20G C32G U56A U78A C85A C108A cannot be ordered by “polymerase ribozyme fitness (log ratio)” value: ≤ -4.2 for the first, ≤ -4.2 for the second.

A20G C35G A49C A73G C87G and A20G C35U G59C C75A A142U G143A cannot be ordered by “polymerase ribozyme fitness (log ratio)” value: ≤ -4.2 for the first, ≤ -4.2 for the second.

A20G C38G C69U G86U A91U C99G A137G and A20G C38U G81A C103A G152A cannot be ordered by “polymerase ribozyme fitness (log ratio)” value: ≤ -4.2 for the first, ≤ -4.2 for the second.

A20G C51G G88A C93A U127C C131A U139G and A20G C54A G92A C105U U145A C149A cannot be ordered by “polymerase ribozyme fitness (log ratio)” value: ≤ -4.2 for the first, ≤ -4.2 for the second.

Compared with A20G C54U A60U C85A, A20G C57A A66C G88A A121C A147C is lower in “polymerase ribozyme fitness (log ratio)” value: -3.42 for the first, ≤ -4.2 for the second.

A20G C75A G80C C93G A98U C108G G117A and A20G C75A U78A C93U C96G G141A cannot be ordered by “polymerase ribozyme fitness (log ratio)” value: ≤ -4.2 for the first, ≤ -4.2 for the second.

A20G C76A C99A U109A G141U and A20G C76A U90G A97G G136C cannot be ordered by “polymerase ribozyme fitness (log ratio)” value: ≤ -4.2 for the first, ≤ -4.2 for the second.

Going from A20G C85G to A20G C87U U148A, the “polymerase ribozyme fitness (log ratio)” value falls from -2.92 to -3.21.

A20G C93U C99U U104C C131U G133U and A20G C93U C108G cannot be ordered by “polymerase ribozyme fitness (log ratio)” value: ≤ -4.2 for the first, ≤ -4.2 for the second.

Compared with A20G C95A A110G, A20G G25A A52G G74A C75U G83A C125G G133U is lower in “polymerase ribozyme fitness (log ratio)” value: -3.46 for the first, ≤ -4.2 for the second.

Going from A20G G25C G58C A106U to A20G G25U U56G G86U U102A C131A, the “polymerase ribozyme fitness (log ratio)” value falls from -3.93 to ≤ -4.2.

First: A20G G34A C118G A121C
Second: A20G G34C C54G G58C G71A C96U
The “polymerase ribozyme fitness (log ratio)” value of the first is higher: -3.83 for the first, ≤ -4.2 for the second.

First: A20G G42A U82G G84A A91C A107C
Second: A20G G48A A119C A121U G136U
The “polymerase ribozyme fitness (log ratio)” value of the first is lower: ≤ -4.2 for the first, -3.51 for the second.

A20G G50C C54G C76A C87G U90G C95U and A20G G50C C54G C105G A106U G133C U151A cannot be ordered by “polymerase ribozyme fitness (log ratio)” value: ≤ -4.2 for the first, ≤ -4.2 for the second.

A20G G50C C75A U77G A91U A120G G143A and A20G G58C U77G A98U G100A U139G cannot be ordered by “polymerase ribozyme fitness (log ratio)” value: ≤ -4.2 for the first, ≤ -4.2 for the second.

First: A20G G59C G94C
Second: A20G G62U C87G U102G
The “polymerase ribozyme fitness (log ratio)” value of the first is higher: -0.672 for the first, ≤ -4.2 for the second.

A20G G68A G81A A98C G141C U145A U151C and A20G G68U G70C C76G C116U cannot be ordered by “polymerase ribozyme fitness (log ratio)” value: ≤ -4.2 for the first, ≤ -4.2 for the second.

Going from A20G G68U G126U C132A to A20G G83A C129G, the “polymerase ribozyme fitness (log ratio)” value rises from ≤ -4.2 to -3.83.

A20G G83A G88C C93G G100A and A20G G83C U90C C149A cannot be ordered by “polymerase ribozyme fitness (log ratio)” value: ≤ -4.2 for the first, ≤ -4.2 for the second.

A20G G84A C116A C118G A121U and A20G G84U A119U U139C cannot be ordered by “polymerase ribozyme fitness (log ratio)” value: ≤ -4.2 for the first, ≤ -4.2 for the second.

Compared with A20G G117A, A20G G124U is lower in “polymerase ribozyme fitness (log ratio)” value: -0.0564 for the first, -0.645 for the second.

Compared with A20G G136A, A20G U33C C87U A89G U151G is lower in “polymerase ribozyme fitness (log ratio)” value: 0.27 for the first, ≤ -4.2 for the second.

A20G U33G U44A A91U C96G and A20G U45C U56G C57U C75A C87G G136C cannot be ordered by “polymerase ribozyme fitness (log ratio)” value: ≤ -4.2 for the first, ≤ -4.2 for the second.

First: A20G U53A
Second: A20G U53A U56A G58A C69U C93U
The “polymerase ribozyme fitness (log ratio)” value of the first is higher: -1.01 for the first, -3.35 for the second.

Going from A20G U55A C63G G80C C96U to A20G U55A C96A U104G, the “polymerase ribozyme fitness (log ratio)” value rises from ≤ -4.2 to -2.4.

First: A20G U55G G92C C105U G143C
Second: A20G U56G G117C
The “polymerase ribozyme fitness (log ratio)” value of the first is lower: ≤ -4.2 for the first, -0.934 for the second.

Going from A20G U77A to A20G U104C G117U, the “polymerase ribozyme fitness (log ratio)” value rises from ≤ -4.2 to -0.102.

First: A20U A21C A40C A98G A107G A119U
Second: A20U A21C U102A C125G
The “polymerase ribozyme fitness (log ratio)” value of the first is lower: ≤ -4.2 for the first, -3.5 for the second.

Compared with A20U A21G C51U G133C, A20U A21U A37C C96A A121G is higher in “polymerase ribozyme fitness (log ratio)” value: ≤ -4.2 for the first, -1.8 for the second.

A20U A21U U31A A47C U55A A60G G62C A66C C72A A110C U145G and A20U A22U A24U C51G C75G G84U A91U C108A cannot be ordered by “polymerase ribozyme fitness (log ratio)” value: ≤ -4.2 for the first, ≤ -4.2 for the second.

A20U A22U A52C G67A U127A and A20U A22U G59A A66C C72G A89U C95A cannot be ordered by “polymerase ribozyme fitness (log ratio)” value: ≤ -4.2 for the first, ≤ -4.2 for the second.

A20U A23U A39G G42A C99U G136A U145C and A20U A23U C51A A122G G126A C129A U139G cannot be ordered by “polymerase ribozyme fitness (log ratio)” value: ≤ -4.2 for the first, ≤ -4.2 for the second.

A20U A23U U44G G59C A60G G84U C95G U104G and A20U A24C C54U C63U G65U G84A C132G U148A cannot be ordered by “polymerase ribozyme fitness (log ratio)” value: ≤ -4.2 for the first, ≤ -4.2 for the second.

A20U A26C G84U C103G A106C C108G and A20U A26C U33C G42U A91C U102C C108U G126A cannot be ordered by “polymerase ribozyme fitness (log ratio)” value: ≤ -4.2 for the first, ≤ -4.2 for the second.

A20U A26U A52C C57G and A20U A28C U55A C85U G140U cannot be ordered by “polymerase ribozyme fitness (log ratio)” value: ≤ -4.2 for the first, ≤ -4.2 for the second.

Going from A20U A28U A39U G83A G141A to A20U A28U A52C C85U C123A, the “polymerase ribozyme fitness (log ratio)” value falls from -4.1 to ≤ -4.2.

A20U A28U A64C C79U C93A C114U and A20U A29G A52G A89U C96A cannot be ordered by “polymerase ribozyme fitness (log ratio)” value: ≤ -4.2 for the first, ≤ -4.2 for the second.

For A20U A29G G46C G50C A66U G83A, the “polymerase ribozyme fitness (log ratio)” value was ≤ -4.2.
